Our source for the nonsense suppression values is the RNAGym collection of RNA variant scans (doi:10.1101/gad.245936.114).

To fix the notation:
B1: tRNA (parent)
chain: CUCUCGGUAGCCAAGUUGGUUUAAGGCGCAAGACUUUAAUUUAUCACUACGAAAUCUUGAGAUCGGGCGUUCGACUCGCCCCCGGGAGAUUUUUUCCUCGAGCAA

This sample is rich in variants without activity.

The series covers variants of B1. The experiment in a line: nonsense suppression (GFP-seq) (ratio to wild type); higher = more function; SUP4oc tRNA, yeast GFP reporter sort-seq. In a few lines: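 Nonsense suppression (GFPSEQ) is the median GFP/RFP ratio of each sorting bin, weighted by the variant's estimated share of cells in that bin and expressed relative to the unmutated parent tRNA. Yeast strains carried genome-integrated variants of an ochre-suppressor tRNA from a library with ~3% random mutations, plus a galactose-driven GFP ochre reporter and RFP, and were grown in raffinose/galactose medium containing 80 mg/L adenine. Cells were sorted into GFP/RFP bins, each bin was Illumina-sequenced (phred ≥30), and variants were kept only with ≥100 reads and ≥30 cells.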
Consider CUAUCGGUAGCCAAGUUGGUUUAAGGCGCAAGACUUUAAUUUAUCACUACGAAAUCUUGAGAUCGGGCGUUCGAAUCGCCCCCGGGAGAUUUUUUCCUCGAGCAA [C3A C75A], for which the nonsense suppression is ≤ 0.026.

For CUCUCGGCCGCCAAGUUGGUUUAAGGCGCAAGACUUUAAUUUAUCACUACGAAAUCUUGGGAUCGGGCCUUCGACCCGCCCCCGGGAGCUUUUUUCCUCGAGCAA [U8C A9C A60G G69C U76C A89C], the nonsense suppression is ≤ 0.026.

As to CUCUCGGUAGCCAAGACGGUUUAAGGCGCUAGACUUUAAUUUAUCACUACGAAAUCUUGAGAUCGGCCGUUCGACUCGCCCCCGGGGGAUUUUUUCCUCGAGCAA [U16A U17C A30U G67C A87G], the nonsense suppression is ≤ 0.026.

Turning to CUCUCGGUAGCCAAGUUGGUUUAAUGCGCAAGCCUUUAAUUUAUCACUACGAAAUCUUGAGAUCGGGCGUUCGACUCGCCCCCGGGUGAUUUUUUCCUCGAGCAA [G25U A33C A87U], the nonsense suppression is ≤ 0.026.

Turning to CUCUCGGUAGCCAAGUUGGUUUAAGGCGCAAGACUUUAAUUUAUCACUACGAAAUCUUGAGAGCGGGCGUUCGACUCGCCCCCGGGAGGUUUUUUCCUCGAGCAA [U63G A89G], the nonsense suppression stood at 0.0674.

Take CUCUCGGUCGCCAAGUUGGUUUAAGGCGCAAGACUUUAAUUUAUCACUACGAAAUCUUGAGAUCGGGCGUUCGAAUCGCCCCCGGGAGAUUUUUUCCUCGAGCAA [A9C C75A]: the nonsense suppression was 0.938.

For the variant CUCUCGGUAGCCACGUUGGUUUAAGGCGCAAGACUUUAAUUUAUCACUACGAAAUCUUGAGAUCGGGCGUUCGACACGCCCCCGGGAGAUUUUUUCCUCGAGCAA [A14C U76A], the nonsense suppression was ≤ 0.026.

Consider CUCUCGGUAGCCAAGUUGGUUUAAGGCGUAAGACUUUAAUUUAUCACUACGAAAUCUUGAGAUCGGGCGUUCGACUCGCCCCCAGGAGAUUUUUUCCUCGAGCAA [C29U G84A], for which the nonsense suppression was found to be 0.0288.

For CUCUCGGUAAGCAAGUUGGUUUAAGGCGCAAGACUUUAAUUUAUCACUACGAAAUCUUGAGAUCGGGCGUUCGACUCGCCCCCGGGAGAUUUUUUCCUCGAGCAA [G10A C11G], the nonsense suppression was ≤ 0.026.

As to CUCUCGGUAGCCAAGUCGGUUUAACGCGCAAGACUUUAAUUUAUCACUACGAAAUCUUGAGAUCGGGCGUUCGACUCGCUCCCGGGAGAUUUUUUCCUCGAGCAA [U17C G25C C80U], the nonsense suppression is ≤ 0.026.

As to CUCUCGGUAGCCAAGUUGGUUUACGGCGCAAGACUUUAAUUUAUCACUACGAAAUCUUGAGAUCGGGCGUUCGACUCGGCCCCCGGAGAUUUUUUCCUCGAGCAA [A24C C79G G84C], the nonsense suppression is ≤ 0.026.

For the variant CUCUCGGUAGCCAAGUUGGUUUAACGCGCAAGACUUUAAUUUAUCACUACGAAAUCUUGAGAUCGGGCGUCCGACUCGCCCCCGGGAGAUUUUUUCCUCGAGCAA [G25C U71C], the nonsense suppression is ≤ 0.026.

As for CUCUCGGUAGCCAAGUUGGUUUAAUGCGCAAGACUUUAAUUUAUCACUACGAAAGCUUGAGAUCGGGCGUUCGACUCGCCCCCGAGAGAUUUUUUCCUCGAGCAA [G25U U55G G85A], the nonsense suppression was ≤ 0.026.

CUCUCGGUACCCAAGUUGGUUUAAGGCGCAAGACUUUAAUUUAUCACUACGAAAUCUUGAGAUGGGGCGUUCGACUCGCCCCCGGGAGAUUUUUUCCUCGAGCAA [G10C C64G]: the nonsense suppression was ≤ 0.026.

CACUCGGUAGCCAAGUAGGUUUAAGGCGCAGGACUUUAAUUUAUCACUACGAAAUCUUGAGAUCGGGCGUUCGACUCGCCCCCGGGAGAUUUUUUCCUCGAGCAA [U2A U17A A31G]: the nonsense suppression is ≤ 0.026.

In the case of CUCUCGGUAGCCAAGUUGGUUUAAGGCGCAAGAGUUUAAUUUAUCACUACGAAAUGCUGACAUCGGGCGUUCGACUCGCCCCCGGGAGAUUUUUUCCUCGAGCAA [C34G C56G U57C G61C], the nonsense suppression was ≤ 0.026.

Consider CUCUCGGUAGCCAAGUUGGUUUAAGGCGCAAGACUUUAAUUUAUCACUACGAACUCUUGAGAUCGGGCGUUCGGCUCGCCCCCGGGAGAUUUUUUCCUCGAGCAA [A54C A74G], for which the nonsense suppression worked out at 0.0575.

For the variant CUCUCGGUAGCCAAGUUGGUUUAAGGCGCAAGACUUUAAUUUAUCACUACGAAAUGUUUAGAUCGGGCGUUCGACUCGCCCCCGGGAGAUUUUUUCCUCGAGCAA [C56G G59U], the nonsense suppression was ≤ 0.026.

On to CUCUCGGUAGCCAAGUUGGUUUAAGCCGCAAGACUUUAAUUUAUCACUACGAAACCUUGAGAUCGGGCGUUCGACUCGCCCCCGGGAGAUUUUUUCCUCGAGCAA [G26C U55C], for which the nonsense suppression is 0.0525.

Regarding CUCUCGGUAGCCAAGUUGGUUUAAGGCGCAAGACUUUAAUUUAUCACUACGAAAUCUUGAGAUCGGGCGUUCGACUCGCCACCGCGAGAUUUUUUCCUCGAGCAA [C81A G85C], the nonsense suppression is ≤ 0.026.

For CUCUCGGUAGCCAAGUUGGGUUAAGGCGCACGACUUUAAUUUAUCACUACGAAAUCUUGAGAUCGGGCGUUGGACUCGCCCCCGGGAGAUUUUUUCCUCGAGCAA [U20G A31C C72G], the nonsense suppression is ≤ 0.026.

As for CUCUCGGUAGACAAGUUGGGUUAAGGCGCAAGACUUUAAUUUAUCACUACGAAAUCUUGAGAUCGGGCGUUCGACUCGCCCCCGGGACAUUUUUUCCUCGAGCAA [C11A U20G G88C], the nonsense suppression is ≤ 0.026.

Regarding CUCUCGGUAGCCAAGUUAGUUUAAGGCGCAAGUCUUUAAUUUAUCACUACGAAAUCUUGAGAUCGGGCGUUCGACUCGCCCCCGGGAGAUUUUUUCCUCGAGCAA [G18A A33U], the nonsense suppression was ≤ 0.026.

Regarding CUCUCGGUAGCCAAGUUGGCUUAAGGCGCAAGACGUUAAUUUAUCACUACGAAAUCUUGAGAUCGGGCGUUCGACUCGCACCCCGGAGAUUUUUUCCUCGAGCAA [U20C U35G C80A G84C], the nonsense suppression is ≤ 0.026.

In the case of CUCUCGGUAGCUAAGUUGGUUUUAGGCGCAAGACUUUAAUUUAUCACUACGAAAUCUUGAGAUCGGGAGUUCGACUCGCCCCCGGGAGAUUUUUUCCUCGAGCAA [C12U A23U C68A], the nonsense suppression is ≤ 0.026.

In the case of CUCUCGGUAGCGAAUUUGGUUUAAGGCGCAGGACUUUAAUUUAUCACUACGAAAUCUUGAGAUCGGGCGUUCGACUCGCCCCCCGGAGAUUUUUUCCUCGAGCAA [C12G G15U A31G G84C], the nonsense suppression is ≤ 0.026.

On to CUCUCGGUAGCCAAGUUGGUUUAAGGCGCGAGACUUUAAUUUAUCACUACGAAUUCUUGAGCUCGGGCGUUCGACUCGCCCCCGGGAGAUUUUUUCCUCGAGCAA [A30G A54U A62C], for which the nonsense suppression was ≤ 0.026.
